Data: article PMC4336329 (PLoS ONE, 2015)
In all, about 310,000 compounds went through this assay and about 14,000 (4.5%) showed an effect of 50% or more. Effects have a minus sign here. The list shows a part of the results.

Molecular target: human ether-à-go-go-related gene (hERG) potassium channel (human, UniProt Q12809)
Assay: primary screen, population patch clamp on CHO cells stably expressing hERG
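Note: peak tail current of the secondary pulse compared with the same well before compound.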

Sequence of human ether-à-go-go-related gene (hERG) potassium channel (Q12809 whole entry, looked up): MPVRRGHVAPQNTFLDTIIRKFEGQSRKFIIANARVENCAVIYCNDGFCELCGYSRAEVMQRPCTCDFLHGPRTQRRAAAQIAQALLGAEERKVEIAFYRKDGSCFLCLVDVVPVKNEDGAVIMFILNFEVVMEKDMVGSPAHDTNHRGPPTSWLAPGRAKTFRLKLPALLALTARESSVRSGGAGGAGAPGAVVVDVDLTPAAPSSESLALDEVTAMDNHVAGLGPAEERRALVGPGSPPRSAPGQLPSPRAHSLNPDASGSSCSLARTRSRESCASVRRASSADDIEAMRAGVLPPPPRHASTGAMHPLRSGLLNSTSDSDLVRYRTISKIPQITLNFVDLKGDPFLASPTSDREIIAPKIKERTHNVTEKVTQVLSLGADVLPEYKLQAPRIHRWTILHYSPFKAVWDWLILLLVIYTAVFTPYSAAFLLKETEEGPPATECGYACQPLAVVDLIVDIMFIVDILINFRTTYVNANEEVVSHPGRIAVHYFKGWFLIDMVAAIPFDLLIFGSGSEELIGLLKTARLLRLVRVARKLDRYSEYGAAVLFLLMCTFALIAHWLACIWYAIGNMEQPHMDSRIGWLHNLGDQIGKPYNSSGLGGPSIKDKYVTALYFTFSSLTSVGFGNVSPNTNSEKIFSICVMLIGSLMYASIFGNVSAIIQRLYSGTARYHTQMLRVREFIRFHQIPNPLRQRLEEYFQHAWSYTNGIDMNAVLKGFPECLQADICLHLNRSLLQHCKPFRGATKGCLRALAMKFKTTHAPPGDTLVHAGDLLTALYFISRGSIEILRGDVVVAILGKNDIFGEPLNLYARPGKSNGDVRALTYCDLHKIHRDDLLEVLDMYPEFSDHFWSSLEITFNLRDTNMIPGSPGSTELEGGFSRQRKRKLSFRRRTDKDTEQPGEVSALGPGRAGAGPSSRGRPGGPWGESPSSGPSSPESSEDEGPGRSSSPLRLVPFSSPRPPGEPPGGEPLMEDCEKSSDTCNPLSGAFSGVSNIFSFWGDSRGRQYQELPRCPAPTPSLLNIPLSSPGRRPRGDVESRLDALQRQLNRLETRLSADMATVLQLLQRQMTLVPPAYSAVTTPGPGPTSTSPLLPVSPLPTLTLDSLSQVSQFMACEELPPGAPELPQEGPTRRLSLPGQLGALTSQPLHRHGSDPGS

Row | SMILES | hERG current change (%, negative = inhibition) at 10uM
1 | CCC(C)C(=O)Nc1cc(C(=O)OC)cc(C(=O)OC)c1 (stereo not drawn) | 8.12%
2 | Cc1cccn2c(=O)nc(SCC(=O)c3ccc(Cl)cc3)nc12 | -21.9%
3 | O=C(Cn1cc2c(n1)CCCCC2)NCc1cccs1 | -5.87%
4 | Cc1ccc(/C=N\NC(=O)C2CN(S(=O)(=O)c3ccccc3)CCN2S(=O)(=O)c2ccccc2)cc1 (stereo not drawn) | -18%
5 | Cc1nnc(N/N=C/c2ccc(-c3ccccc3F)o2)n1N.Cl | -40.3%
6 | CCOC(=O)c1ccc(NC(=O)C(=O)NCC2(c3ccc(OC)cc3)CCOCC2)cc1 | -10.3%
7 | O=C(CC(NS(=O)(=O)c1ccc(Cl)cc1)c1ccco1)NCc1cccnc1 (stereo not drawn) | -18.1%
8 | CN(C(=O)CSc1nc(-c2ccc(F)cc2)cs1)C1CCS(=O)(=O)C1 (stereo not drawn) | -37.1%
9 | CC(=O)Nc1ccc(-c2csc(NC(=O)c3ccc(C)o3)n2)cc1 | -6.43%
10 | O=S(=O)(NCCN1CCCC1)c1ccc(C(F)(F)F)cc1 | 1.97%
11 | Cc1ccc(S(=O)(=O)/N=C2\SC(CC(=O)Nc3ccc(F)cc3)C(=O)N2c2ccccc2)cc1 (stereo not drawn) | 12.2%
12 | COc1ccc(-n2c(-c3cc(-c4ccccc4)sc3N)n[nH]c2=S)cc1 | 12.8%
13 | COCCNC(=O)C1CC(=O)N(C2CCCCC2)C1 (stereo not drawn) | 11.8%
14 | CCCOC(=O)Nc1ccc(S(=O)(=O)Nc2ncccn2)cc1 | 9.2%
15 | CCC(=O)OCC(=O)Nc1cc(C)c(C)cc1[N+](=O)[O-] | 9.98%
16 | Cc1cccc(C(C)(C)C)c1OCCN1CCCC1 | -6.22%
17 | COCCn1nnnc1C(c1ccc(OC)cc1OC)N1CCN(c2ccccc2F)CC1.Cl (stereo not drawn) | -9.23%
18 | CC[C@@H](C)[C@@H](C(=O)N1CCNCC1)n1cc(CCC(=O)O)nn1.Cl | -5.79%
19 | COc1ccccc1NC(=O)CCS(=O)(=O)c1cc2c(cc1Cl)NC(=O)CO2 | 1.94%
20 | COc1ccc(OC)c(N(CC(=O)N2CCC(C)CC2)S(=O)(=O)c2ccccc2)c1 | -22.2%
21 | CC1CC1C(=O)Nc1nc2ccc(S(C)(=O)=O)cc2s1 (stereo not drawn) | 1.04%
22 | Cc1ccc(C(=O)Nc2ccc3c(c2)OCO3)o1 | 1.96%
23 | COc1ccc(CCC(=O)N2CCN(c3cccc(C)c3C)CC2)cc1 | -40.4%

Row | SMILES | hERG current change (%, negative = inhibition) at 10uM
24 | CCc1nnc(NC(=O)c2cc(S(=O)(=O)N3CCN(c4ccccc4)CC3)ccc2Cl)s1 | 1%
25 | Cc1ccc(C(=O)NC2CC(=O)N(c3ccc4c(c3)OCCO4)C2)cc1[N+](=O)[O-] (stereo not drawn) | 14.6%
26 | O=S(=O)(NC1CCCCC1N1CCN(c2ccccc2F)CC1)c1ccc(Cl)cc1 (stereo not drawn) | 10.2%
27 | CC(C)CC(=O)N1CCN(S(=O)(=O)c2ccccc2)CC1 | 0.444%
28 | CC(O)CNCCCOc1cccc(C(F)(F)F)c1.O=C(O)C(=O)O (stereo not drawn) | 14.6%
29 | CCN(CC)CCCn1c(=S)[nH]c2ccc(Cl)cc2c1=O | -63.7%
30 | COc1ccc(N2CCN(C3CCCN(C(=O)CN4CCOC4=O)C3)CC2)cc1 (stereo not drawn) | -2.3%
31 | Cn1cc(S(=O)(=O)N2CCCC2)cc1C(=O)N1CCN(c2cccc(Cl)c2)CC1 | -41.2%
32 | FC(F)(F)c1nc(NCc2cccnc2)c2ccccc2n1 | 11.8%
33 | CCOC(=O)C1(C)NC(c2ccco2)C2C(=O)N(C)C(=O)C21 (stereo not drawn) | 13.6%
34 | O=C(NC1CCCCC1)c1nn2c(C(F)(F)F)cc(-c3ccco3)nc2c1Br | 11.8%
35 | O=C(O)c1ccc(-n2c(-c3ccc(Br)cc3)n[nH]c2=S)cc1 | 17.4%
36 | CCc1cc2cc(C(=O)Nc3ccc(C)cc3)sc2s1 | 15%
37 | COC(=O)c1ccc(CN2C(=O)NC3(CCCc4ccccc43)C2=O)o1 (stereo not drawn) | 0.917%
38 | CCN(Cc1ccccc1)C(=O)COC(=O)c1cc(=O)[nH]c2ccccc12 | -4.27%
39 | COC(=O)NCC(c1ccc2c(c1)OCO2)N1CCN(c2ccc(OC)cc2)CC1 (stereo not drawn) | -3.26%
40 | COC(=O)c1ccc(N/C(=N/S(=O)(=O)c2ccccc2)c2ccccc2)cc1 | -34.6%
41 | CCOc1ccc2c(c1)c(N=O)c(O)n2C | -5.91%
42 | CCn1c(SCC(=O)Nc2sc3c(c2C#N)CCC(C(C)(C)C)C3)nnc1-c1ccco1 (stereo not drawn) | 11.2%
43 | Cc1ccc(N/N=C/C=C/c2ccco2)cc1 | 12.8%
44 | CS(=O)(=O)Nc1ccc(C2=NN(C(=O)c3ccccc3)C(c3cccs3)C2)cc1 (stereo not drawn) | -59.6%
45 | Cc1csc(Sc2ccc(S(=O)(=O)N3CCCC3)cn2)n1 | -16.8%
46 | COc1ccc(Cl)cc1C(=O)Nc1ccncc1 | -26.2%

Row | SMILES | hERG current change (%, negative = inhibition) at 10uM
47 | COC(=O)[C@@H]1CCCN1C(=O)CCc1nnc(CCc2c[nH]c3ccccc23)o1 | 23.7%
48 | COc1ccccc1C(CNC(=O)c1ccco1)N1CCCC1 (stereo not drawn) | 1.23%
49 | CC1=C(C)CC2C(=O)N(c3cccc4ccccc34)C(=O)C2C1 (stereo not drawn) | -3.2%
50 | COc1ccc(OC)c(/C=N/OC(=O)Nc2ccc(Cl)cc2)c1 | -1.74%
51 | Cc1ccc(S(=O)(=O)Nc2cc(=O)[nH]c(SCc3ccc(Cl)cc3)n2)cc1 | 6.9%
52 | O=C1CC2CS(=O)(=O)CC2N1C1CCCCC1 (stereo not drawn) | 19.7%
53 | O=c1cc(NCCO)c2ccccc2o1 | 5.57%
54 | CCCCCOC(=O)C1C(c2ccccc2)C(C(=O)O)C1c1ccccc1 (stereo not drawn) | -2.06%
55 | Cn1nc(-c2ccccc2)c(CO)c1Sc1ccccc1 | 12.4%
56 | CCN(CC(=O)Nc1c(F)cccc1F)C(=O)c1ccc(COc2ccccc2)o1 | -1.49%
57 | COc1ccc(C(=O)N(CC2CCCO2)C(C(=O)NC2CCCC2)c2ccc(C)cc2)cc1OC (stereo not drawn) | -13.4%
58 | COc1ccc(Cc2nnc(NC(=O)c3ccc(OC)c(OC)c3)s2)cc1OC | 0.849%
59 | COc1ccc(-c2[nH]ncc2CN2CCCO2)cc1F | 20.1%
60 | COc1ccc(OC)c(N(CC(=O)NCc2ccncc2)S(C)(=O)=O)c1 | 19%
61 | Nc1cccc(C(=O)Nc2ccccc2Cl)c1 | 8%
62 | CCOc1ccc(S(=O)(=O)NCC(=O)NC2CCCCC2)cc1 | 3%
63 | N#Cc1ccc(NC(=O)c2cc(=O)c3ccccc3o2)cc1 | -13.6%
64 | COc1ccc(CNC(=O)CCn2cccc2)cc1 | 1.9%
65 | COc1ccc(-n2nc3c(c2NC(=O)c2c(F)cccc2Cl)CS(=O)C3)cc1 (stereo not drawn) | -3.74%
66 | COCCCNC(=O)Cn1cc(/C=C(\C#N)C(=O)NC2CC2)c2ccccc21 | -7.95%
67 | Cc1onc(-c2ccccc2)c1C(=O)NNC(=O)c1ccccc1O | 10.3%
68 | Cc1ccccc1N1CCN(c2ncnc3scc(-c4cccs4)c23)CC1 | -1.45%
69 | COC(=O)c1cc(-c2cccc([N+](=O)[O-])c2)c2c(=O)[nH]c(=O)n(C)c2n1 | 6.48%

Row | SMILES | hERG current change (%, negative = inhibition) at 10uM
70 | Cc1cccc(C(=O)Nc2nccs2)c1[N+](=O)[O-] | 11.4%
71 | COc1cc2c(cc1/C=C/C(=O)O)OC(C)C2 (stereo not drawn) | -2.09%
72 | NC(=O)c1oc2ccc(Cl)cc2c1N | 2.24%
73 | COc1cc(CN(C)CCc2ccccn2)cc(OC)c1OC.O=C(O)C(=O)O | -11.6%
74 | Nc1ccccc1N1C(=O)c2cccc3cccc(c23)C1=O | -0.337%
75 | O=C(CCS(=O)(=O)c1ccc(F)cc1)Nc1nc(-c2ccccn2)cs1 | -12.6%
76 | CC(=O)N1CCN(Cc2nc3cc(NC(=O)c4ccccc4)ccc3n2C)CC1 | 15.8%
77 | Cc1ccc(OCCOc2cccc(/C=N/NC(N)=O)c2)cc1 | 14.5%
78 | COc1ccc(C2C(C(=O)N3CCCC3)c3cc(OC)c(OC)cc3C(=O)N2C)cc1 (stereo not drawn) | 3.08%
79 | O=C(COC(=O)C12CC3CC(CC(C3)C1)C2)Nc1ccc2[nH]c(=O)[nH]c2c1 | 2.25%
80 | CCOc1ccc(C(=O)SC2=NCCS2)cc1 | -3.96%
81 | O=C(CCNc1n[nH]c(=O)[nH]c1=O)N1CCCCC1 | 7.04%
82 | COc1ccc(C(C(=O)NC2CCCC2)N2CCc3ccccc32)cc1 (stereo not drawn) | 9.68%
83 | Cc1c(OC(C(=O)O)c2ccccc2)ccc2c1oc(=O)c1ccccc12 (stereo not drawn) | 17.3%
84 | Cc1cc(C(F)(F)F)c(C#N)c(N2CCOCC2)n1 | -10.3%
85 | O=C(N/N=C/c1ccc2cccnc2c1)c1nc2ccccc2c(=O)[nH]1 | 5.32%
86 | O=C1CCN(S(=O)(=O)c2ccccc2)N1 | 7.12%
87 | O=C(O)CCCC(=O)Nc1ccc(C(=O)N2CCCCC2)cc1 | 14.7%
88 | CCOc1ccc(S(=O)(=O)N2CCOCC2)c2ccccc12 | -1.09%
89 | Cc1cccc(N2CCN(CCCNC(=O)C3CCCN(c4ncnc5c4nc4n5CCCCC4)C3)CC2C)c1 (stereo not drawn) | -67.8%
90 | CCOC(=O)CSc1nc(-c2ccccc2)nc2ccccc12 | 1.69%
